Values joined by “and” are separate entries in the source; they are usually repeats but may differ in a detail not shown here. Equal values may be shown once. About 620 (0.23%) of roughly 270,000 compounds were called active. Inconclusive means that the source gave no clear call. Such entries were picked first, then a sample of the others. Calls come from the whole dose curve; as a rule, active = well fitted inhibition curve with a large enough effect in the polarisation, with a control signal flat (not every such curve was filed as active); inconclusive = small, poorly fitted or top-dose-only effect, or effect the other way, or a change in a side signal; inactive = no such curve, though single readings can be large or run the other way; the % refers to the polarisation. Potencies of inconclusive entries are doubtful fits and often do not repeat. A note “side channel” means that the fit belongs to a control or component signal, not to the main read-out.
These compounds were tested against Menin (Homo sapiens) (UniProt O00255) (assay: qHTS Assay for Inhibitors Targeting the Menin-MLL Interaction in MLL Related Leukemias: Competition With Texas Red Labeled MLL-derived Mutant Peptide). Conditions: fluorescence polarization; FP activity change, negative = inhibition: at 61.6 µM (top of the series).
Sequence of UniProt O00255 (O00255 whole entry, looked up): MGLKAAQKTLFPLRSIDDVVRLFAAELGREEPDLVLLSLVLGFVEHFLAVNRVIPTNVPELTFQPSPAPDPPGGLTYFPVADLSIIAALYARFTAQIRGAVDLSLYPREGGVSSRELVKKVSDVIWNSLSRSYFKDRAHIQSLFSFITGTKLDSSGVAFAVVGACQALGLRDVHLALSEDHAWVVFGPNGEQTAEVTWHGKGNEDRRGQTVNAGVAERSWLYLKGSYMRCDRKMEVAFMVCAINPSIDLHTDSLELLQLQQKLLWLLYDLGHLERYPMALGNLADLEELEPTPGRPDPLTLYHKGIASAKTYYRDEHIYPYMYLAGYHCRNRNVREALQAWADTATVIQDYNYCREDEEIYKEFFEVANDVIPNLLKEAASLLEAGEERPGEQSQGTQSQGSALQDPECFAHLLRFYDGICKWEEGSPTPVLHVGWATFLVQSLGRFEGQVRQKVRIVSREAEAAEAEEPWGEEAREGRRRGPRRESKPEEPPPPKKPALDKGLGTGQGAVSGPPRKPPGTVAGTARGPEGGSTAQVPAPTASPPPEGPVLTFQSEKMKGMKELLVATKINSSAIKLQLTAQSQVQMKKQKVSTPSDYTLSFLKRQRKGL
Potency is the fitted concentration of half-maximal effect; tags give direction and shape of the fitted curve or compound fluorescence and quenching.
Throughout, for FP activity change, negative = inhibition: % of control where 0% means no effect.

Row | SMILES | Potency | FP activity change, negative = inhibition
1 | O=C(c1ccc2c(=O)n(-c3ccccc3)c(=O)[nH]c2c1)N1CCCCC1 | inconclusive: 1.41 µM [inhibitor, partial curve] | 
2 | O=C(O)c1cc(N/N=C/c2ccc(-c3ccccc3)cc2)ccc1Cl | inconclusive: 10 µM [quencher, side channel, partial curve] | 
3 | Fc1ccc(C2c3cccn3CCN2C(=S)Nc2cccc(Br)c2)cc1 (stereo unspecified) | inconclusive: 39.8 µM [inhibitor, single point] | 
4 | COc1cc2c(cc1OC)C(c1cccs1)N(C(=O)C(C)C)CC2 (stereo unspecified) | inconclusive: 1.12 µM [fluorescent, side channel, full curve, poor fit] | 
5 | Cc1cc(C)nc(/N=C(\N)Nc2ccc(CC(=O)OC(C)C)cc2)n1 | inconclusive: 6.31 µM [fluorescent, side channel, partial curve] | 
6 | CCCNc1[nH]c(=O)n(C)c(=O)c1N=O |  | inactive: 12.2%
7 | CCCn1c(SCc2ccc(C(=O)OC)o2)nc2ccccc2c1=O | inconclusive: 15.8 µM [fluorescent, side channel, partial curve] | 
8 | COc1cc(-c2cc(=O)c3c(O)cc(O)cc3o2)ccc1O | inconclusive: 12.6 µM [quencher, side channel, partial curve] and inconclusive: 39.8 µM [quencher, side channel, single point] | 
9 | O=[N+]([O-])c1cccc(S(=O)(=O)N2CCN(S(=O)(=O)N3CCOCC3)CC2)c1 | inconclusive: 31.6 µM [quencher, side channel, single point] | 
10 | CCCN(CCC)S(=O)(=O)c1ccc(NC(=O)Cc2cccs2)cc1 | inconclusive: 28.2 µM [quencher, single point] | 
11 | Oc1ccc(Cl)cc1CNc1ccc(Br)cn1 | inconclusive: 39.8 µM [quencher, single point] | 
12 | O=C(CSc1ccccc1)Nc1ccccc1C(=O)O | inconclusive: 28.2 µM [quencher, side channel, partial curve] | 
13 | CC1=CC(c2ccc(Cl)cc2)n2nc(NS(=O)(=O)c3ccc(C)cc3)nc2N1 (stereo unspecified) |  | inactive: -4.36%
14 | COc1nnc(-c2ccc(N3CCCCC3)c(NC(C)=O)c2)c2ccccc12 | inconclusive: 7.94 µM [fluorescent, side channel, full curve, poor fit] | 
15 | Cc1cccc2c(C(=O)Nn3cnnc3)cc(-c3ccccc3Cl)nc12 | inconclusive: 31.6 µM [quencher, side channel, single point] | 
16 | CCN(CC)CCCNC(=O)CSc1c2c(nc3cc(Cl)ccc13)CCCC2 |  | inactive: 6.86%
17 | CCCCN(C)C/C(O)=C(\C#N)c1nc(-c2ccccc2)cs1 | inconclusive: 39.8 µM [quencher, side channel, single point] | 
18 | O=C(/C(=N\Nc1ccc([N+](=O)[O-])cc1)Sc1nnnn1-c1ccccc1)c1ccccc1 | inconclusive: 15.8 µM [quencher, side channel, partial curve] | 

Row | SMILES | Potency | FP activity change, negative = inhibition
19 | CCC(=O)N1CCCc2cc(S(=O)(=O)N3CCN(c4ccccn4)CC3)ccc21 | inconclusive: 44.7 µM [inhibitor, partial curve] | 
20 | Cc1cccc(NC(=O)Cn2nnc(C(=O)Nc3ccc(F)c(Cl)c3)c2N)c1 | inconclusive: 25.1 µM [fluorescent, side channel, single point] | 
21 | Oc1ccc(/C=C/c2ccc3ccccc3n2)cc1 | inconclusive: 35.5 µM [quencher, side channel, partial curve] | 
22 | Cc1cccc(N2CCN(C(=O)Cc3c(C(=O)O)[nH]c4ccc(Cl)cc34)CC2)c1C | inconclusive: 22.4 µM [quencher, side channel, partial curve] | 
23 | C=C(C)COc1ccc(-c2ncncc2-c2ccccc2OC)c(O)c1 | inconclusive: 15.8 µM [fluorescent, side channel, partial curve] | 
24 | Cc1ccc(C(=O)Nc2cccc(O)c2)cc1S(=O)(=O)N1CCCCCC1 | inconclusive: 22.4 µM [inhibitor, single point] | 
25 | O=CNCCCc1nc2ccccc2n1CCc1ccccc1 | inconclusive: 11.2 µM [inhibitor, partial curve] | 
26 | COc1ccccc1NC(=O)Nc1ccnn1Cc1cccs1 |  | inactive: 3.94%
27 | COc1ccc(C(C)(C)C)cc1NC(=O)COC(=O)C(C)C | inconclusive: 10 µM [fluorescent, side channel, partial curve] | 
28 | Oc1[nH]c2ccccc2c1N=NC(=S)NCCc1ccccc1 | inconclusive: 39.8 µM [quencher, side channel, single point] | 
29 | Cc1ccc(N2NC(C)(c3cccs3)NC2=S)cc1 (stereo unspecified) | inconclusive: 25.1 µM [quencher, side channel, single point] | 
30 | Cc1noc(NS(=O)(=O)c2ccc(NC(=O)CSc3nc4ccccc4s3)cc2)c1C | inconclusive: 28.2 µM [quencher, side channel, single point] | 
31 | CCN(CC)CCCCCCCCOC(=O)c1cc(OC)c(OC)c(OC)c1 | inconclusive: 11.2 µM [fluorescent, side channel, partial curve] | 
32 | COc1ccc(C(=S)N2CCCCC2)cc1Br | inconclusive: 2.82 µM [inhibitor, full curve, poor fit] | 
33 | COc1cccc(CNC(=O)C(C(=O)NCc2cccc(OC)c2)c2ncc(C(F)(F)F)cc2Cl)c1 | inconclusive: 25.1 µM [fluorescent, side channel, single point] | 
34 | N#C/C(C(=O)Nc1ccc(Cl)cc1)=C(/S)Nc1ccccc1 | inconclusive: 12.6 µM [quencher, partial curve] | 
35 | Cc1cccc2sc(NC(=O)CCn3cccc3)nc12 | inconclusive: 25.1 µM [quencher, side channel, single point] | 
36 | O=C(O)CCCN1C(=O)/C(=C\C(Cl)=C\c2ccccc2)SC1=S | inconclusive: 14.1 µM [fluorescent, side channel, partial curve] | 
